The whole screen tested about 43,000 compounds, of which about 200 (0.47%) were called active. Another 12% or so got no clear call; they are omitted. The call rests on the fitted dose curve; in most records, active means well fitted cell-killing curve with a large enough effect; inconclusive means small, poorly fitted or top-dose-only effect, or effect the other way; inactive means flat fitted curve, though single readings scatter. Some of the results follow.
experiment: Cell viability qHTS assay in S16 Pmp22-F2sN cells; conditions: S16 Pmp22-F2sN Schwann cells viability, CellTiter-Glo, 24 h; series mostly up to 57.5 µM; activity change, negative = cytotoxicity: at the top concentration; further: nearly all actives have a fitted effect of over 65% in size
In short: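 S16 Pmp22-F2sN Schwann cells (500-1,000/well) in phenol-red-free DMEM with 10% FBS received 23 nL compound by pin tool for 24 h at 37 °C. Viability was then read as CellTiter-Glo luminescence after 15 min at room temperature.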
On the % scale 0 is the no-effect control and ±100 the full control effect.

SMILES	activity change, negative = cytotoxicity
COc1ccc(C2=NS(=O)(=O)N(C)C(C(=O)Nc3cc(C)ccc3O)=C2)cc1OC	inactive: 0.701%
CCOC(=O)c1c(C)n(-c2ccccc2)c2ccc(OC(=O)c3ccccc3)cc12	inactive: -10.6%
Cc1ccc(C)c(CSc2nc3ncccc3[nH]2)c1	inactive: -19.2%
Cc1cccc(N2C(=O)CSC23C(=O)N(Cc2cccc(F)c2)c2ccccc23)c1 (stereo unspecified)	inactive: 0.631%
CN1CCN(C(CNC(=O)C(=O)Nc2ccccc2)c2ccc3c(c2)OCO3)CC1 (stereo unspecified)	inactive: 11.1%
CC(C)COC(=O)/C(C#N)=C\c1ccc(-c2ccccc2Cl)o1	inactive: -1.48%
COc1ccccc1CNS(=O)(=O)c1cc(C(=O)Nc2cccc(C(F)(F)F)c2)ccc1F	inactive: -9.59%
Cc1c(CC(=O)NCCc2ccccc2F)c(=O)oc2c(C)c3occ(C(C)(C)C)c3cc12	inactive: -26.5%
COc1cccc(N2CCN(C(=O)c3ccc4c(=O)n(CCc5ccccc5)c(=O)[nH]c4c3)CC2)c1	inactive: 26%
COc1ccc(NC(=O)CSc2cn(CC(=O)N3CCOCC3)c3ccccc23)cc1OC	inactive: 2.4%
Cc1ccc(C)c(NC(=O)CCN2C(=O)c3ccccc3Sc3ncccc32)c1	inactive: -1.28%
O=C(CSc1ncc(S(=O)(=O)c2ccc(Br)cc2)c(=O)[nH]1)NCc1ccc(Cl)cc1	inactive: 2.58%
O=C(Nc1ccccc1)C(Cc1ccccc1)N1Cc2ccccc2C1=O (stereo unspecified)	inactive: 1.04%
COc1ccc(-c2cc(C(=O)NCc3cc(OC)c(OC)c(OC)c3)[nH]n2)cc1	inactive: -12.2%
CCc1ccc(S(=O)(=O)c2nnn3c2nc(N2CCC(C)CC2)c2cc(Cl)ccc23)cc1	inactive: -13%
CCOC(=O)c1c(NC(=O)CSc2cn(CCNC(=O)c3ccccc3F)c3ccccc23)sc2c1CCC2	inactive: 0.703%
O=C(Nc1ccc2nc(SCC(=O)N3CCCc4ccccc43)sc2c1)c1cccc(F)c1	inactive: -12.5%
COC(=O)c1cc(S(=O)(=O)NCC2CCN(Cc3ccc(F)cc3)CC2)cn1C	inactive: -2.36%
Fc1ccc(-n2ncc3c(NCCCN4CCOCC4)ncnc32)cc1	inactive: 6.36%
COc1cc(NC(=O)CCc2c(C)nn(-c3ccc4nncn4n3)c2C)cc(OC)c1OC	inactive: 2.99%
Cc1ccc(Cl)cc1N1CCN(S(=O)(=O)c2ccc3[nH]c4c(c3c2)CCCCC4)CC1	inactive: -2.11%
COc1cccc(CNC(=O)c2ccc(CSc3nc4ccncc4n3Cc3cccc(C)c3)cc2)c1	inactive: -21.4%
Cc1ccc2c(c1)N(CCC(=O)NCc1ccc(F)cc1)C(=O)CO2	inactive: -0.846%
Cc1cccc(CSc2ncc(CO)n2Cc2ccc(F)cc2)c1	inactive: -14.5%
Cc1ccc2c(c1)-c1nc(-c3ccc(Cl)cc3)cc(-c3coc4ccccc4c3=O)c1CO2	inactive: 22.4%
Cc1cc(C)c2c(=O)cc(C(=O)Nc3sc4c(c3C(=O)NCc3ccccc3)CCCC4)oc2c1	inactive: -3.04%

From PubChem BioAssay AID1508642 (National Center for Advancing Translational Sciences (NCATS), 2021)
